Measured values: the supplement of paper PMC12217912
The list shows a part of the results. The full chains were built here from the parent and the listed change. Values near 0.05 are background.

B1: TEV protease; numbered along this chain (parent)
chain: MGESLFKGPRDYNPISSSICHLTNESDGHTTSLYGIGFGPFIITNKHLFRRNNGTLVVQSLHGVFKVKDTTTLQQHLVDGRDMIIIRMPKDFPPFPQKLKFREPQREERICLVTTNFQTKSMSSMVSDTSCTFPSGDGIFWKHWIQTKDGQCGSPLVSTRDGFIVGIHSASNFTNTNNYFTSVPKNFMELLTNQEAQQWVSGWRLNADSVLWGGHKVFMVKPEEPFQPVKEATQL

Variants of: B1
Test: raw area under fraction-flipped curve 0-4 h after induction (AUC4h, not background-subtracted), DNA-recorder readout of cleavage of the substrate (dimensionless); higher = more cleavage of the substrate by the protease variant
Settings: temperature: 34 °C; time window: 0-4 h after rhamnose induction
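Further: Bxb1 expression induced with 0.2% (w/v) L-rhamnose at OD600 near 0.5, cultures sampled hourly, flipped fraction per protease–substrate barcode pair counted by paired-end Illumina sequencing.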

Variant | area with substrate ENLYLQS | area with substrate ENLYQQS | area with substrate ENLYYQS | area with substrate ENLYIQS | area with substrate ENLYNQS | area with substrate ENLYKQS | area with substrate ENLYSQS | area with substrate ENLYVQS | area with substrate ENLYTQS | area with substrate ENLYWQS
L190N | 0.0426 | 0.0681 | 0.0893 |  |  |  |  |  |  | 
F38E |  |  | 0.0549 | 0.0681 |  |  |  |  |  | 
N172W |  |  |  |  | 0.0666 |  |  |  |  | 
N172M |  |  |  |  |  | 0.032 |  |  |  | 
N172L |  | 0.0641 |  |  |  |  |  |  |  | 
R102N |  |  |  |  | 0.0643 |  | 0.033 |  |  | 
S158E |  | 0.0474 |  | 0.0865 | 0.0271 |  |  |  |  | 
G35I |  |  |  |  |  |  |  | 0.0533 |  | 
N178R |  |  |  |  |  |  | 0.0674 |  |  | 
P94N | 0.0775 |  |  | 0.0884 |  |  | 0.0736 |  | 0.0878 | 0.0838
G162V |  |  |  |  |  |  |  | 0.0857 |  | 
S135L |  |  | 0.0519 |  | 0.0516 |  |  | 0.0598 |  | 
N186R |  |  | 0.0665 |  |  |  |  |  |  | 
N186H |  |  | 0.0703 |  |  | 0.0665 |  | 0.15 |  | 
R81V |  | 0.0645 |  |  | 0.0661 |  | 0.0777 |  |  | 0.0765
L235F |  |  |  |  | 0.06 | 0.041 |  | 0.0807 | 0.0803 | 0.128
P93W | 0.0651 | 0.0755 |  |  |  |  |  | 0.073 |  | 
R204P | 0.0623 |  |  |  | 0.0652 | 0.0334 |  |  |  | 0.0607
T147S |  | 0.0618 |  |  |  |  |  |  |  | 
Q194I |  |  |  | 0.15 |  |  |  |  |  | 
D91M |  |  |  |  | 0.0652 |  |  |  | 0.0753 | 
D91E |  |  |  |  | 0.0741 |  |  |  |  | 
N177Q |  |  |  |  |  |  | 0.086 |  | 0.0965 | 

Variant | area with substrate ENLYLQS | area with substrate ENLYQQS | area with substrate ENLYYQS | area with substrate ENLYIQS | area with substrate ENLYNQS | area with substrate ENLYKQS | area with substrate ENLYSQS | area with substrate ENLYVQS | area with substrate ENLYTQS | area with substrate ENLYWQS
E223A |  |  |  | 0.0931 |  |  |  | 0.0791 |  | 
T181V |  | 0.0736 |  |  | 0.0655 |  | 0.078 | 0.0813 | 0.0593 | 0.0443
G213H |  | 0.0543 | 0.0553 | 0.0791 | 0.0454 |  | 0.0621 |  |  | 
K90M |  |  | 0.0601 | 0.127 |  | 0.0655 |  |  |  | 
D137T | 0.0807 |  | 0.0692 |  |  | 0.0628 |  |  |  | 0.0666
H215S |  |  |  |  | 0.0493 |  |  |  |  | 
S209N | 0.0804 |  | 0.0666 |  | 0.0452 |  |  |  | 0.0779 | 0.0553
S209G | 0.0982 | 0.0502 |  |  | 0.0745 |  |  |  |  | 0.0693
R87N |  |  |  |  | 0.0653 |  |  |  |  | 
L205S |  |  |  |  | 0.0501 |  |  |  |  | 
A170F |  | 0.0486 |  |  |  |  |  |  |  | 0.0705
G214W |  |  |  | 0.0817 |  |  |  | 0.0802 |  | 0.0509
I164V |  |  |  |  |  |  |  |  | 0.0676 | 
L211I |  |  |  | 0.126 |  |  |  |  |  | 
F163N |  |  |  | 0.108 |  |  | 0.0621 | 0.0939 |  | 0.0701
Q97T |  |  |  |  |  |  |  |  | 0.084 | 0.0756
Q97Y |  |  |  |  |  | 0.0436 |  | 0.115 | 0.0782 | 
Q97L |  | 0.0579 | 0.0641 |  |  | 0.0495 |  |  |  | 0.0934
Q97G |  | 0.0316 |  | 0.131 |  |  |  |  |  | 
Q197R |  |  |  | 0.114 | 0.0695 |  | 0.0566 |  | 0.0698 | 0.0525
L99W |  | 0.0594 | 0.0748 |  |  | 0.0535 |  | 0.0886 |  | 
N206L |  |  |  | 0.141 |  |  |  |  |  | 

Same assay, conditions: temperature: 34 °C; time window: 0-4 h after rhamnose induction

Variant | area with substrate ENLYMQS | area with substrate ENLYPQS | area with substrate ENLYRQS | area with substrate ENLYHQS
G162V | 0.0402 | 0.0666 | 0.0562 | 
S135L |  |  | 0.0522 | 
N186R | 0.0909 |  |  | 
L235F | 0.0812 |  |  | 0.0776
S154N |  | 0.0638 |  | 
R204P |  | 0.0583 | 0.0339 | 0.0592
T147S |  |  | 0.0535 | 
Q194I | 0.0709 | 0.0682 | 0.0515 | 0.0687
D91M | 0.156 |  |  | 
T181V | 0.0669 | 0.0545 |  | 
G213H | 0.0669 |  |  | 0.0695
K90M | 0.0738 |  |  | 
H215S |  | 0.0583 |  | 
S209N |  | 0.0675 |  | 0.0653
S209G | 0.0717 |  | 0.0468 | 
G214W | 0.0721 |  |  | 0.0632
L211I |  |  |  | 0.0769
F163S | 0.0792 |  |  | 
Q197R |  | 0.0708 |  | 0.067
L99W | 0.0784 |  |  | 
F226V | 0.0836 |  |  | 0.0751
